# Out of some 360,000 compounds screened, about 7,500 (2.1%) were called active. Inconclusive results, whose numbers are uncertain, are shown with a selection of clear calls. Calls come from the whole dose curve; as a rule, active = well fitted cell-killing curve with a large enough effect; inconclusive = small, poorly fitted or top-dose-only effect, or effect the other way, or another doubt; inactive = no such curve, though single readings can be large or run the other way. No potency is given beside an inconclusive call; the fits are too rough.
# Test: qHTS for induction of synthetic lethality in tumor cells producing 2HG: qHTS for the HT-1080-IDH1KD cell line;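 for activity, negative = toxicity: 0% = DMSO wells and -100% = cell-free medium wells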
# Details: HT-1080 IDH1 knockdown viability, ATP luminescence, 48 h; activity, negative = toxicity: at 46.1 µM (top of the series) unless noted
# In short: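 Luminescent ATP read-out (CellTiter-Glo, 10 min at room temperature) after 48 h compound exposure at 37 °C gave viability of IDH1-knockdown HT-1080 cells. Activity was normalised to DMSO and cell-free wells, then fitted as concentration-response curves.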
# Potency is the fitted concentration of half-maximal effect; tags give direction and shape of the fitted curve.
Compound,Potency,"activity, negative = toxicity"
O=C(CN(Cc1ccccc1F)S(=O)(=O)c1ccc(Cl)cc1)NCCC1=CCCCC1,"inconclusive [cytotoxic, single point]",–
CCOCCCNC(=S)NCCCNc1nc2c(C)cc(C)cc2cc1C#N,–,inactive: -4.51%
CCN(CC)CCNc1nc(C(F)(F)F)nc2c1nnn2Cc1ccccc1,"inconclusive [cytotoxic, partial curve]",–
COc1ccc(NC(=S)N/N=C/c2ccc(F)c(F)c2)cc1,active: 20.6 µM,–
CCc1nc2c(OCc3cc(Cl)cc(Cl)c3)cccn2c1N(C)C(=O)c1ccc(C)cc1,"inconclusive [cytotoxic, single point]",–
CCC(=O)N1CCN(c2ccc(NC(=O)COc3ccc(C)cc3C)cc2)CC1,"inconclusive [cytotoxic, single point]",–
O=C(NCc1ccc(F)cc1)c1cc(C2CCCCN2C(=O)c2ccc(Cl)cc2)on1 (stereo not given),"inconclusive [cytotoxic, single point]",–
Cc1cc2c(cc1S(=O)(=O)N1CCc3ccccc31)NC(=O)CO2,"inconclusive [cytotoxic, partial curve, poor fit]",–
CC(=O)Nc1cccc(NCC(=O)Nc2cc(S(=O)(=O)N3CCCCC3)ccc2Cl)c1,–,inactive: 3.55%
Cc1cccc(-n2c3nc(=O)[nH]c(=O)c-3cc3cc([N+](=O)[O-])ccc32)c1,"inconclusive [cytotoxic, partial curve]",–
O=C(NCc1ccccc1)c1noc2c1CCCC2,"inconclusive [cytotoxic, single point]",–
COC(C[C@@H](O)C[C@@H](O)[C@@H](C)OCc1ccccc1)OC,–,inactive: 2.69%
COc1ccc2sc(-c3ccccc3OC)c(-c3ccc(O)cc3)c2c1,–,inactive: -10.9%
CC(C)(C)c1ccc(-c2nc(-c3ccncc3)no2)cc1,"inconclusive [cytotoxic, single point]",–
Cc1ccc(OCCCn2ccnc2)cc1C,–,inactive: 2.69%
O=C(NC(=S)/C(=C1\CCCCCN1)[N+](=O)[O-])c1ccccc1,–,inactive: -9.34%
O=C(NNC(=O)c1cc(S(=O)(=O)N2CCOCC2)ccc1Cl)c1ccc(F)cc1,–,inactive: 0.972%
Nc1sc(-c2ccccc2)n[n+]1Cc1cccc2cccnc12,–,inactive: -14.4%
O=C(c1cc(-c2ccccc2)nc2ccccc12)N1CCCc2ccccc21,–,inactive: -10.5%
O=C(NNC1=C(C(=O)C(F)(F)F)CCC1)c1ccc(Cl)cc1,active: 7.94 µM,–
C[N+]1(CCC(=O)c2ccccc2)CCCCC1,–,inactive: 6.54%
COc1ccc2c(c1)/C(=C/c1cc(OC)c(OC)c(OC)c1)C(=O)N2,active: 5.8 µM,–
CN(Cc1ccc(Cl)c(Cl)c1)C(C(=O)NCc1ccccc1)c1ccc(C(F)(F)F)cc1 (stereo not given),"inconclusive [cytotoxic, single point]",–
COc1ccccc1CCC(=O)Nc1cc(S(=O)(=O)N2CCOCC2)ccc1N1CCCC1,–,inactive: 6.96%

Compound,Potency,"activity, negative = toxicity"
COC(=O)c1ccc(CNC(=O)CC[C@H]2O[C@@H](n3cc(C)c(=O)[nH]c3=O)C[C@@H]2O)cc1,–,inactive: 17.4%
COc1ccc(C2CC(C(F)(F)F)n3nc(C(=O)O)cc3N2)cc1OC (stereo not given),–,inactive: 1.91%
COc1ccc(NC(=S)N(CCCN2CCC(C)CC2)Cc2cccs2)cc1Cl,"inconclusive [cytotoxic, partial curve]",–
CC(C)CC(COCc1ccc(Cl)cc1)N1CCN(C(=O)c2ccc(C(F)(F)F)cc2)CCC1=O (stereo not given),"inconclusive [cytotoxic, single point]",–
COc1ccc(C(CCNCc2ccc(OC)c(OC)c2)c2ccc(F)cc2)cc1 (stereo not given),–,inactive: 2.07%
CCc1nc2c(OCCC3CCCCC3)cccn2c1N(C)C(=O)c1ccc(C)cc1,"inconclusive [cytotoxic, single point]",–
CCCCn1c(CN2CCN(c3cccc(Cl)c3)CC2)nc2c1c(=O)[nH]c(=O)n2C,active: 3.55 µM,–
NC(=O)c1cc(N2C(=O)C=CC2=O)ccc1Cl,active: 15.8 µM,–
COc1ccccc1CN1C[C@@H]2C[C@@H](c3ccccc3C)N3CCC[C@@]23C1=O,–,inactive: -8.58%
CC(C)C1C(=O)N(Cc2cn(CCC3OCCO3)nn2)CCS(=O)(=O)N1Cc1ccc(-c2ccc(Cl)c(Cl)c2)cc1 (stereo not given),active: 18.4 µM,–
C/C=C(\C)C(=O)OC1CC(C)(C)C[C@H]2C3=CC[C@@H]4[C@@]5(C)CCC(O[C@@H]6O[C@@H](C(=O)O)[C@@H](O)C(O[C@@H]7OC[C@H](O)[C@@H](O)[C@@H]7O[C@@H]7OC(CO)C(O)[C@@H](O)[C@@H]7O)C6O[C@@H]6OC(CO)C(O)C(O)C6O)[C@@](C)(CO)[C@@H]5CC[C@]4(C)[C@]3(C)CC(O)[C@@]12CO (stereo not given in full),"inconclusive [cytotoxic, single point]",–
Cc1ccc(-c2c[n+](Cc3ccc(Cl)c(Cl)c3)c3n2CCC3)cc1,"inconclusive [cytotoxic, full curve, poor fit]",–
Oc1[nH]c2ccccc2c1N=Nc1nncc2ccccc12,"inconclusive [cytotoxic, single point]",–
Cc1ccccc1C(=O)Nc1cc(-c2cc(C(C)(C)C)oc2C)nn1C,"inconclusive [cytotoxic, partial curve]",–
CCCCn1nc(C(=O)N[C@@H](CCSC)c2nc3ccccc3[nH]2)c2ccccc2c1=O,"inconclusive [cytotoxic, partial curve]",–
Nc1nc(CN2CCN(c3ccc(F)cc3)CC2)nc(N2CCCc3ccccc32)n1,"inconclusive [cytotoxic, single point]",–
c1ccc2c(-c3[nH]ncc3CNCCCn3ncc4ccccc43)cccc2c1,"inconclusive [cytotoxic, single point]",–
COc1ccc(N2CN=C3SCC(=O)N3C2)cc1,"inconclusive [cytotoxic, single point]",–
COc1ccc(N(CC(=O)Nc2cccc(N(C)S(C)(=O)=O)c2)S(=O)(=O)c2ccc(F)cc2)cc1,–,inactive: -27.7%
CC(C)(C)c1ccccc1OCCOCCN1CCCCCC1,"inconclusive [cytotoxic, partial curve]",–
CCc1ccc(OC2(C)CCN(Cc3ccccc3OC(F)F)C2)cc1 (stereo not given),–,inactive: -24.4%
Cc1ccc(C2(CCNS(=O)(=O)c3ccc(C)cc3)CCOC(C(C)C)C2)cc1 (stereo not given),–,inactive: -24.5%
CN=c1scc(-c2cccs2)n1/N=C/c1ccccc1O,"inconclusive [cytotoxic, single point]",–
COc1ccc(NC(=O)C2Cc3c(-c4cccc(F)c4)ccnc3O2)cc1 (stereo not given),"inconclusive [cytotoxic, single point]",–

Compound,Potency,"activity, negative = toxicity"
O=C1CC2(CCN(C(=O)c3c(F)cccc3Cl)CC2)Oc2ccccc21,–,inactive: -1.48%
O=C(N/N=C/c1c[nH]c2ccccc12)c1cc(-c2ccc3ccccc3c2)n[nH]1,active: 5.8 µM,–
Cc1ccccc1C(=O)NC(=S)N(C)CCc1ccccn1,"inconclusive [rising, full curve, poor fit]",–
O=C(Nc1nc2ccccc2s1)c1ccc2sc([C@H]3C[C@H](O)[C@@H](CO)O3)nc2c1,"inconclusive [cytotoxic, single point]",–
Cc1cccc(C)c1NC(=O)CSCC(=O)c1ccc(O)c(O)c1,"inconclusive [cytotoxic, single point]",–
CCOc1cc([N+](=O)[O-])cc(/C=N/NC(=O)c2c(-c3ccccc3)noc2C)c1O,"inconclusive [cytotoxic, single point]",–
COc1ccc(C(=O)c2nc3c(n2O)CCCCC3)cc1,–,inactive: 13.6%
CCc1[nH]nc2c1C1(CCN(C(=O)OCc3ccccc3)CC1)C(C#N)=C(N)O2,–,inactive: 17.1%
CC1CN(C(=O)CSc2nnc(C3CCCCC3)n2N)CC(C)O1 (stereo not given),–,inactive: 4.48%
Cc1ccc(C(=O)O)cc1NC(=S)NC(=O)c1ccc([N+](=O)[O-])c(C)c1,–,inactive: -7.09%
Cc1ccc(N=C2SC(C(=O)Nc3ccc(OC(F)(F)F)cc3)C(N)=C2C(=O)Nc2c(C)cc(C)cc2C)cc1 (stereo not given),active: 18.4 µM,–
CC(=NNC(=O)c1ccncc1)c1ccccc1O,"inconclusive [cytotoxic, partial curve, poor fit]",–
COc1ccccc1NC(=S)N(Cc1ccco1)Cc1cc2cc(C)c(C)cc2[nH]c1=O,active: 7.31 µM,–
O=c1c2ccccc2[nH]c(=S)n1CCCN1CCN(c2ccccc2)CC1,"inconclusive [cytotoxic, single point]",–
COc1cc(OC)c(N(C)S(=O)(=O)c2cccc(C(=O)OCC(=O)NCc3ccco3)c2)cc1Cl,"inconclusive [cytotoxic, partial curve, poor fit]",–
COC(=O)CC/C(O)=C1\C(=O)CC(C)(C)CC1=NCCc1nc2ccccc2[nH]1,–,inactive: 1.4%
CCCCN(C(=O)c1c(C)noc1C)c1c(N)n(CCC)c(=O)[nH]c1=O,"inconclusive [rising, partial curve]",–
O=C(CSc1cccc[n+]1[O-])c1ccc(Cl)s1,"inconclusive [cytotoxic, single point]",–
CC1CCCN(C(=O)C(Cc2ccccc2)n2cccc2)C1 (stereo not given),–,inactive: -8.4%
Cc1ccc(CCNC(=O)C2CCN(S(=O)(=O)c3ccc4c(c3)NC(=O)C(C)S4)CC2)cc1 (stereo not given),"inconclusive [cytotoxic, single point]",–
C=C(C)COc1ccc(-c2n[nH]c(C)c2-c2ccc(OC)cc2)c(O)c1,active: 18.4 µM,–
Cc1ccc(S(=O)(=O)N(C)c2ccc3sc(C)nc3c2)cc1,"inconclusive [cytotoxic, single point]",–

# Source: PubChem BioAssay AID686971 (National Center for Advancing Translational Sciences (NCATS), 2013)
